Consider 53 compounds from PubChem BioAssay AID1346428 (National Center for Advancing Translational Sciences (NCATS), 2018).

The campaign covered roughly 48,000 compounds. About 1,200 (2.5%) were called active. Not shown: some 2% with an inconclusive outcome.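 The calls were made as follows: active = activation of at least 60% and not above a set upper limit (about 1 call in 100 departs from these limits); inconclusive = activation of 40% to 60%, or above that upper limit; inactive = activation under 40%.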 This is one part of the list.

This assay addresses Probable G-protein coupled receptor 32 (Homo sapiens) (UniProt O75388). As to the kind of experiment: qHTS for Agonists of Human Resolvin D1 Receptor DRV1. Also: 0% is about no effect. Particulars: CHO-K1 GPR32 beta-arrestin PathHunter luminescence, 90 min; at 76.9 µM; active compounds read high; zero percent set by DMSO-only wells. The method, boiled down: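 GPR32 activation in stably transfected CHO-K1 cells, detected as beta-arrestin recruitment by enzyme-fragment complementation. Compound exposure: 90 min, 37 °C.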
UniProt O75388, sequence (O75388 whole entry, looked up, the tested form may be a part): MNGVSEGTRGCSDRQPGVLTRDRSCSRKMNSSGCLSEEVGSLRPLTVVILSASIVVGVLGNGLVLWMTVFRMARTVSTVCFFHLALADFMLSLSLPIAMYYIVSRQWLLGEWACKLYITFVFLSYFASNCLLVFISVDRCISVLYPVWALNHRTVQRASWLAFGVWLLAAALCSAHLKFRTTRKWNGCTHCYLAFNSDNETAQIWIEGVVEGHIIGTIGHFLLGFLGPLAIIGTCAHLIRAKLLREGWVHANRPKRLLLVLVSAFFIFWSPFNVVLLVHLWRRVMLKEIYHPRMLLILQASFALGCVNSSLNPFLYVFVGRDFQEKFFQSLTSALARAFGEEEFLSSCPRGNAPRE
`O=S(=O)(NCc1ccccc1)c1ccc(-c2cnc(C3CC3)o2)cc1`: the activation was inactive: 7.98%. As for `CCOC(=O)c1sc(NC(=O)c2nc3ncccn3n2)c(C(=O)OC)c1C`, the activation is inactive: -10.7%.

On to `COc1ccccc1CNC(=O)CN1C(=O)CSc2ccc(S(=O)(=O)N(C)C)cc21`, for which the activation is inactive: 21.2%.

For the compound `CCOC(=O)c1c(C)[nH]c(CCC(=O)NCCCN2CCN(c3cc(C)ccc3C)CC2)c1C`, the activation was inactive: 5.11%. In the case of `O=C(CCNS(=O)(=O)c1ccc2c(c1)CCN2C(=O)C1CC1)N1CCN(c2ccccc2F)CC1` it was active: 70.6%; in that of `CCOc1ccc(S(=O)(=O)N2CCN(c3ccc(Cl)c(Cl)c3)CC2)c2ccccc12`, inactive: -0.707%; in that of `CCn1nc(-c2ccccc2)c(-c2ccccc2)c(C(=O)Nc2nc(C)c(C(=O)N(C)C)s2)c1=O`, inactive: -5.86%. As to `CC(=O)OC(COc1ccccc1)Cn1cnc2cc(C)c(C)cc21` (stereo not drawn), the activation is inactive: -12.1%. In the case of `COc1ccc(NC(=O)CC2C(=O)N(c3ccc(C)cc3)C(=O)N2C2CCCCC2)cc1` (stereo not drawn) it was inactive: -0.596%; in that of `O=C(CCSCc1ccccc1Cl)N1CCN(c2cccc(Cl)c2)CC1`, inactive: -27%; in that of `CCCn1c(CCC(=O)Nc2cc(Cl)c(OC)cc2OC)nc2cccnc21`, inactive: -8.11%. In the case of `Cc1ccc(C)c(NC(=O)CSc2ncc3c(n2)-c2ccc(Cl)cc2N(C)S3(=O)=O)c1` it was inactive: -13.6%; in that of `O=C(Cn1c(=O)n(-c2ccccc2Cl)c(=O)c2sc3ccccc3c21)N1CCCC1`, inactive: 7.5%. The result for `CCOc1ccc(CNC(=O)c2cnc3sc(N(CC)CC)nn3c2=O)cc1OC` reads inactive: -11.6%.

Regarding `CCc1nc2cccnc2n1-c1ccc(CC(=O)Nc2ccc(C)cc2)cc1`, the activation was inactive: 1.06%.

`O=C(O)C1CCC1`: the activation was inactive: -27.5%.

As for `Nc1cccc2c1CN(C1CCC(=O)NC1=O)C2=O` (stereo not drawn), the activation is inactive: 4.82%. Take `Cc1ccc(NC(=O)CSc2nc3nccnc3c(=O)n2CCc2c[nH]c3ccccc23)cc1`: the activation is inactive: 7.21%. The result for `CC(C)N(Cc1ccccc1)C(=O)CN1C(=O)COc2ccc(S(=O)(=O)NC3CCCC3)cc21` reads inactive: -39%; that for `Cc1cc(C)cc(NC(=O)CCc2nnc3n(CC(C)C)c(=O)c4ccccc4n23)c1`, inactive: 17.5%; that for `COc1ccc(-n2ccn(Cc3ccccc3Cl)c(=O)c2=O)cc1OC`, inactive: -21.1%. In the case of `CCN(C(=O)CSc1nc2ccccc2n1CC(=O)Nc1ccccc1C)c1ccccc1` it was inactive: 1.34%; in that of `COc1cc(CNc2ccc3[nH]c(=O)[nH]c3c2)ccc1OCc1ccccc1F`, inactive: 9.08%.

Take `CCOC(=O)c1ccc(OCCN2C[C@H](O)[C@@H](O)[C@H](O)[C@H]2CO)cc1`: the activation is inactive: -16.4%. The result for `COc1ccc(Cl)cc1NC(=O)CSc1ccc(-c2sc(C)nc2C)nn1` reads inactive: -0.802%; that for `CC(C)Cc1nn2c(=O)cc(COC(=O)c3ccc4c(c3)OCO4)nc2s1`, inactive: 8.23%; that for `CN(C)c1ccc(C(CNS(=O)(=O)c2ccc(Br)cc2)N2CCCC2)cc1` (stereo not drawn), inactive: -6.11%. Regarding `CCN(CC)S(=O)(=O)c1ccc(NC(=O)CCc2c(C)nc3cc(-c4ccc(Cl)cc4)nn3c2C)cc1`, the activation is inactive: -5.71%. The result for `CCOC(=O)c1cc2c(=O)n3ccccc3nc2n(CCCOC)c1=NC(=O)C(C)(C)Oc1ccc(Cl)cc1` reads inactive: -8.76%; that for `Cc1ccc(OCc2nc(-c3ccc(C(=O)N4CCN(c5ccc(Cl)cc5)CC4)cc3)oc2C)cc1`, inactive: -25%. The result for `Cc1nn(Cc2ccc(Cl)cc2)c(C)c1NC(=O)c1noc2c1CCc1ccccc1-2` reads active: 107%; that for `Cc1cccc(-c2nc(SCC(=O)Nc3cccc(C(F)(F)F)c3)n3[nH]c(=O)cc3n2)c1`, inactive: -23.6%. In the case of `CCOc1ccc(CNC(=O)C2CCCN(S(=O)(=O)c3ccc4c(c3)CCCC(=O)N4)C2)cc1` (stereo not drawn) it was inactive: 16.1%. Consider `CC(C)CCNC(=O)CSc1c2c(nc3ccc(Cl)cc13)CCCC2`, for which the activation is inactive: -19.3%. The result for `CC(C)Oc1ccc(CNC(=O)Cn2c(=O)oc3ccccc32)cc1` reads inactive: 37.8%. `CCOC(=O)C1=C(CN2CCN(CC)CC2)NC(=O)NC1c1ccc(Cl)cc1` (stereo not drawn): the activation was inactive: 8.2%. The result for `Cc1cc(C(=O)NCc2ccccc2C)c2c(C)nn(-c3cccc(F)c3)c2n1` reads inactive: -12.5%; that for `CCCCCCn1c(CNC(=O)c2ccccc2)nc2ccccc21`, inactive: -6.19%. Consider `O=C(CC1N=C2c3ccccc3N=C(SCc3ccc(F)cc3)N2C1=O)NCc1cccs1` (stereo not drawn), for which the activation was inactive: -15.1%. The result for `COc1ccc2c(c1)CCc1c(C(=O)Nc3ccccc3C(F)(F)F)noc1-2` reads inactive: 3.88%; that for `CCc1ccc(NC(=O)Cn2ncc3c4ccccc4n(C)c3c2=O)cc1`, inactive: -14.5%; that for `COc1cccc(CNC(=O)Cn2cc3c(n2)-c2c(oc(C(=O)N4CCCC4)c2C)CC3)c1`, inactive: 0.387%. The result for `CCOC(=O)c1scc(-c2ccc(C)cc2)c1S(=O)(=O)Nc1cc(Cl)ccc1OC` reads inactive: -4.68%; that for `CCCCn1cc(S(=O)(=O)c2ccc(OC)cc2)c(=O)c2cc(F)c(F)cc21`, inactive: -18.2%. The result for `CCc1ccc(NC(=O)CSc2nc(-c3ccccc3)c(C#N)c(=O)[nH]2)cc1` reads inactive: 12%; that for `COC(=O)Cn1c(CN2CCN(c3ccc(OC)cc3)CC2)nc2c1c(=O)[nH]c(=O)n2C`, inactive: -5.41%; that for `CCOC(=O)c1c(S(=O)(=O)NCC(=O)Nc2cccc(CC)c2)c(C)n(C)c1C`, inactive: -13.1%. In the case of `CCOc1ccc(NC(=O)c2cc(S(=O)(=O)NC3CCCC3)ccc2F)cc1`, the activation was inactive: -19.2%.

In the case of `O=C(c1ccc(Cl)cc1)N1CCN(c2ccc([N+](=O)[O-])c3ncccc23)CC1`, the activation is inactive: 9.51%. As to `Clc1cccc(-c2csc(-c3nc(-c4ccc(Br)s4)cs3)n2)c1`, the activation is inactive: 15.9%.

As for `CCN(CC)C(=O)c1sc2c(c1C)c(=O)n(-c1ccccc1)c(=O)n2Cc1cc(=O)n2ccccc2n1`, the activation is inactive: -0.396%. The result for `O=C(CCNS(=O)(=O)c1ccc2c(c1)CCN2C(=O)C1CC1)N1CCN(c2ccc(F)cc2)CC1` reads active: 69.2%; that for `CCN1C(C(=O)c2ccccc2)=C(OC(=O)C(C)C)c2ccccc2S1(=O)=O`, inactive: -42.4%.
